The text below walks through data of PubChem BioAssay AID360 (National Center for Advancing Translational Sciences (NCATS), 2006).

The whole screen tested about 48,000 compounds, of which about 550 (1.1%) were called active. Not shown: some 4% with an inconclusive outcome. No stated cut-off is given here; in the data, active means potency below about 15 µM; inconclusive means mostly about 16 µM to 33 µM; inactive means weaker than that. This is one part of the list.
Potency means the concentration at half of the fitted maximal effect.

This test addresses Lysosomal acid glucosylceramidase (Homo sapiens) (UniProt P04062). As to the kind of experiment: Glucocerebrosidase.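 Further: the screen sought inhibitors.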 Particulars: purified enzyme, resorufin glucoside fluorescence (screen aimed at inhibitors), 20 min; series mostly up to 77 µM. A digest of the protocol: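 Wild-type enzyme at 0.2 nM final in 50mM citric acid/KH2PO4, 10mM sodium taurocholate, 0.01% tween-20, pH 5.9, with resorufin beta-D-glucopyranoside at 30 uM final. Compounds titrated, 20 min at RT, red fluorescence read; AC50 from titration.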
Chain of UniProt P04062 (P04062 whole entry, looked up): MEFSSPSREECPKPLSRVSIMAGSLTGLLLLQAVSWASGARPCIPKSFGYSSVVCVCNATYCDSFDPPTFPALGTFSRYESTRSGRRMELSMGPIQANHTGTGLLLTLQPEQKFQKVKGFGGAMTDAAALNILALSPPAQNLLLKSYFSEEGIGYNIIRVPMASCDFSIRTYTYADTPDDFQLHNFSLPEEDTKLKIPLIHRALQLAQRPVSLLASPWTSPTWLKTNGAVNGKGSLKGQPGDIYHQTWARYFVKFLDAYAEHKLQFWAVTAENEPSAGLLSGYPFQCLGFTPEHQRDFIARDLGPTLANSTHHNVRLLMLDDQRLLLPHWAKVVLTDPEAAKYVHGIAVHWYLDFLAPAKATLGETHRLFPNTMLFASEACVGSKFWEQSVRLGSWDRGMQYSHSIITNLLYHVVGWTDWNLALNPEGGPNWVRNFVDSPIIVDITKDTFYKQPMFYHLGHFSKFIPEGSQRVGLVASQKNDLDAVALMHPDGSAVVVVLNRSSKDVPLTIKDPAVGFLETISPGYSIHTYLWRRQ
As for `CC1(C)NC(=O)N(CC(O)CN(Cc2ccccc2)Cc2ccccc2)C1=O` (stereo not given), the Potency is inactive: > 76.9 µM.

Turning to `CCOC(=O)C1CCN(CC(=O)Nc2c(C(=O)OC)n(C)c3cccc(C)c23)CC1`, the Potency is inactive: > 76.9 µM.

For the compound `CCOc1ccc(-n2c(COc3ccccc3)nnc2SCC(N)=O)cc1`, the Potency was inactive: > 76.9 µM.

In the case of `Cn1c(CCCNC(=O)c2ccccc2)nc2ccccc21`, the Potency was inactive: > 76.9 µM.

`CC(C)N(Cc1cc2ccccc2[nH]c1=O)C(=O)C(C)(C)C`: the Potency is inactive: > 76.9 µM.

In the case of `COC(=O)Cn1ncn2c(cc3oc(C)cc32)c1=O`, the Potency was inactive: > 76.9 µM.

In the case of `Cc1ccc(N(CN2CCCC2=O)C(=O)c2ccc(C)c(C)c2)cc1`, the Potency was inactive: > 76.9 µM.

As to `O=C(Nc1ccc(S(=O)(=O)NCc2ccccc2)cc1)Nc1ccc2c(c1)OCO2`, the Potency was inactive: > 76.9 µM.

Consider `O=C(Nc1scc(-c2ccccc2)c1C(=O)O)c1ccco1`, for which the Potency was inactive: > 76.9 µM.

For `Cc1nn(C/C(C#N)=N\O)c(C)[n+]1N`, the Potency was inactive: > 76.9 µM.

On to `CC(C)Oc1ccc(C(=O)N(CN2CCCC2=O)c2ccc(F)cc2)cc1`, for which the Potency was inactive: > 76.9 µM.

As to `CC(C)C(OC(=O)c1cccs1)C(=O)NCc1cccs1` (stereo not given), the Potency was inactive: > 76.9 µM.

Take `O=C(Nc1ccccc1)c1cnc[nH]1`: the Potency was inactive: > 76.9 µM.

As to `COc1ccc(-c2cc(C(=O)NCc3cccnc3)no2)cc1`, the Potency was inactive: > 76.9 µM.

`CCOc1ccc(NCc2nnc(SCC(=O)Nc3cc(C)on3)n2-c2ccc(OC)cc2)cc1`: the Potency is inactive: > 76.9 µM.

For the compound `CC(C)(C)C1CCC(=O)C(C2(O)C(=O)Nc3ccccc32)C1` (stereo not given), the Potency was inactive: > 76.9 µM.

Regarding `O=C(COc1ccc(F)cc1Br)N1CCc2ccccc21`, the Potency was inactive: > 76.9 µM.

Turning to `O=C(c1cc(-c2cccs2)on1)N1CCOCC1`, the Potency was inactive: > 76.9 µM.

Consider `O=C(c1csc(Nc2ccccc2Cl)n1)N1CCCC1`, for which the Potency is inactive: > 76.9 µM.

`CCN(CC)C(=O)CSC1=Nc2ccccc2C2=NC(Cc3c[nH]c4ccccc34)C(=O)N12` (stereo not given): the Potency is inactive: > 76.9 µM.

As for `CC(NCCO)C(=O)C12CC3CC(CC(C3)C1)C2` (stereo not given), the Potency was inactive: > 76.9 µM.

Turning to `O=C(c1cc(Cl)cc(Cl)c1)N1CCOCC1`, the Potency is inactive: > 76.9 µM.

In the case of `COc1ccc(NC(=O)c2ccco2)cc1NC(=O)c1c(F)c(F)c(OC)c(F)c1F`, the Potency was inactive: > 76.9 µM.

Take `CC(=O)NC(C)c1nc2ccccc2n1Cc1ccccc1F` (stereo not given): the Potency was inactive: > 76.9 µM.

Take `COc1ccc(Cl)cc1-n1c(N)c(C(N)=O)sc1=S`: the Potency was inactive: > 76.9 µM.

With `CCOC(=O)c1cnc(SCC(=O)Nc2cc(C(F)(F)F)ccc2N2CCOCC2)nc1N`, the Potency is inactive: > 76.9 µM.

As to `Cc1ccc(NC(=O)NC2(C(=O)NCc3ccco3)CCCCC2)cc1`, the Potency was inactive: > 76.9 µM.

Take `COc1cc(OC)cc(C(=O)NCC(=O)OC2CCOC2=O)c1` (stereo not given): the Potency is inactive: > 76.9 µM.

Regarding `CCCc1cc(=O)[nH]c(SCc2ccccc2)n1`, the Potency is inactive: > 76.9 µM.

Consider `COc1cc(C2NC(=O)NC(C)=C2C(=O)OC(C)(C)C)ccc1OCC(=O)O` (stereo not given), for which the Potency was inactive: > 76.9 µM.

For `Cc1cc(=O)n2c(-c3ccccc3C)n[nH]c2n1`, the Potency was inactive: > 76.9 µM.

With `CCOC(=O)N1CCN(S(=O)(=O)c2ccc(OCC(=O)OC)c(C)c2)CC1`, the Potency is inactive: > 76.9 µM.

For the compound `CCCn1cc(S(=O)(=O)CC(=O)Nc2ccc(OCC)cc2)c2ccccc21`, the Potency is inactive: > 76.9 µM.

For `COc1ccc(-c2cnc(N)n2CC2CCCO2)cc1` (stereo not given), the Potency entry was “inactive”.

As to `CCOc1cc2[nH]c(=O)n(CCCC(=O)NCc3ccco3)c(=O)c2cc1OCC`, the Potency is inactive: > 76.9 µM.

Take `CN1CCCC(OC(=O)c2cc(Br)ccc2Cl)C1` (stereo not given): the Potency was inactive: > 76.9 µM.

Regarding `Cc1nc2c(C(=O)NCc3ccc(F)cc3)c[nH]n2c(=O)c1Cl`, the Potency is inactive: > 76.9 µM.

Turning to `Cc1cc(C)n(C(=O)COc2c(C)cccc2C)n1`, the Potency was inactive: > 76.9 µM.

`Cc1cccc(Nc2nn3c(=O)c4ccccc4nc3s2)c1`: the Potency is inactive: > 76.9 µM.

Consider `COc1ccc(CCn2c(-c3ccco3)nc3oc4ccccc4c(=O)c3c2=O)cc1`, for which the Potency is inactive: > 76.9 µM.

Consider `CCC(=O)N1CCc2cc(S(=O)(=O)CCC(=O)Nc3ccc(CC)cc3)ccc21`, for which the Potency was inactive: > 76.9 µM.

In the case of `CCCS(=O)(=O)N1CCCC(C(=O)NCCN2CCOCC2)C1` (stereo not given), the Potency is inactive: > 76.9 µM.

As for `COc1ccc2cc(C3(C)NC(=O)NC3=O)ccc2c1` (stereo not given), the Potency was inactive: > 76.9 µM.

Take `COc1ccc(NC(=O)CN2C(=O)C(C)Oc3ccccc32)c(OC)c1` (stereo not given): the Potency is inactive: > 76.9 µM.

For the compound `CC1CN(c2cc3nccnc3cc2F)CC(C)O1` (stereo not given), the Potency is inactive: > 76.9 µM.

Turning to `CC1(C)C(=O)NCCN1C(=O)CSc1nccc(-c2ccc(Br)cc2)n1`, the Potency was inactive: > 76.9 µM.

On to `CCC(=O)N1CCN(c2ccccc2NC(=O)COc2cc(C)ccc2C(C)C)CC1`, for which the Potency is inactive: > 76.9 µM.

In the case of `O=C(Nc1ccc(-c2noc(CCc3ccccc3)n2)cc1)c1cccnc1`, the Potency was active: 14.1 µM.

Consider `COc1ccc(Cl)cc1NC(=O)CSc1ncnc2c1oc1ccccc12`, for which the Potency was inactive: > 76.9 µM.

With `Cc1cc2c(c(=O)o1)C1(C(=O)N(CC(=O)O)c3ccccc31)C(C#N)=C(N)O2` (stereo not given), the Potency was inactive: > 76.9 µM.

Take `COc1cc(C(=O)NCc2ccco2)cc(OC)c1OC`: the Potency was inactive: > 76.9 µM.

In the case of `O=C(c1cccc(F)c1)N1CCN(S(=O)(=O)c2ccc(C(F)(F)F)cc2)CC1`, the Potency was inactive: > 76.9 µM.

As to `CCOC(=O)N1CCN(S(=O)(=O)c2ccc(C)c(C)c2C)CC1`, the Potency is inactive: > 76.9 µM.

`O=C(c1ccc(CNS(=O)(=O)c2cccc(C(F)(F)F)c2)cc1)N1CCOCC1`: the Potency was inactive: > 76.9 µM.

For `CCc1ccccc1NC(=O)CSc1nnc([C@@H](N)Cc2ccccc2)o1`, the Potency is inactive: > 76.9 µM.

For the compound `CC1CC(C(O)c2ccccn2)C(=O)C(C(O)c2ccccn2)C1` (stereo not given), the Potency was inactive: > 76.9 µM.

For `COC(=O)C1CN(S(=O)(=O)c2ccc(C)cc2)CCN1S(=O)(=O)c1ccc(C)cc1` (stereo not given), the Potency was inactive: > 76.9 µM.

As to `CCCN(CCC)CCNC(=O)CS(=O)Cc1nc(-c2ccc(C)cc2)oc1C` (stereo not given), the Potency was inactive: > 76.9 µM.

As to `COc1cc(C(=O)NCc2cn3ccccc3n2)cc(OC)c1OC`, the Potency is inactive: > 76.9 µM.

In the case of `COc1ccc(C(=O)CSc2nc3nc(C)cc(C)n3n2)cc1OC`, the Potency was inactive: > 76.9 µM.

In the case of `Cc1c(C(=O)NCc2ccco2)oc2ccc(S(=O)(=O)N3CCC4(CC3)OCCO4)cc12`, the Potency was inactive: > 76.9 µM.

For `Cn1c(CCN2CCCCC2)nc2cc(NS(=O)(=O)c3ccccc3)ccc21`, the Potency is inactive: > 76.9 µM.

With `CCOc1ccc(N2CC(C(=O)Nc3ccc(F)cc3F)CC2=O)cc1` (stereo not given), the Potency was inactive: > 76.9 µM.

Consider `O=C(NCc1ccccc1)NC1(C(=O)N2CCOCC2)CCCCC1`, for which the Potency is inactive: > 76.9 µM.

As for `CCC(=O)N(Cc1cc2cc(OC)ccc2[nH]c1=O)c1ccc(C)cc1C`, the Potency was inactive: > 76.9 µM.

Regarding `COc1ccc(-c2ccc(SCC(=O)N3CCCC3)nn2)cc1OC`, the Potency was inactive: > 76.9 µM.

Regarding `O=C(Nc1ccc(Cc2ccncc2)cc1)c1ccc(Br)o1`, the Potency is inactive: > 76.9 µM.

Regarding `O=c1nccc(NCc2ccco2)[nH]1`, the Potency was inactive: > 76.9 µM.

`CS(=O)(=O)N(CC(=O)N1CCc2ccccc2C1)c1ccc2c(c1)OCO2`: the Potency is inactive: > 76.9 µM.

Consider `C=CCNC1=C(Cl)C(=O)N(c2ccccc2Cl)C1=O`, for which the Potency was inactive: > 76.9 µM.

On to `Cc1cc(C(=O)COC(=O)CCc2nc3ccccc3s2)c(C)n1C`, for which the Potency is inactive: > 76.9 µM.

Turning to `CCn1cc(C(=O)Nc2nncs2)c(=O)c2cc(F)c(N3CCN(C(=O)c4ccco4)CC3)cc21`, the Potency was inactive: > 76.9 µM.

On to `CCC(=O)Nc1ccc(N2CCN(C(=O)c3ccccc3C)CC2)cc1`, for which the Potency was inactive: > 76.9 µM.

In the case of `CCOC(=O)Cc1csc(NC(=O)c2ccc(S(=O)(=O)N3CCCC3)cc2)n1`, the Potency was inactive: > 76.9 µM.

Regarding `Cc1ccc(CCN2CC(C(=O)NC3CCCC3)CC2=O)cc1` (stereo not given), the Potency was inactive: > 76.9 µM.

Regarding `CCOC(=O)N1CCC(NC(=O)CCN2C(=O)C3C4C=CC(C4)C3C2=O)CC1` (stereo not given), the Potency is inactive: > 76.9 µM.

Take `COC(=O)CC1C(=O)NCCN1C(=O)Nc1ccccc1` (stereo not given): the Potency is inactive: > 76.9 µM.

Consider `COC(=O)Cn1cc(C(=O)c2ccco2)c2ccccc21`, for which the Potency is inactive: > 76.9 µM.

For `O=C1COc2ccc(C(=O)c3ccccc3)cc2CN1`, the Potency was inactive: > 76.9 µM.

Regarding `c1csc(Cn2c(-c3cccs3)nc3ccccc32)c1`, the Potency was inactive: > 76.9 µM.

`COc1ccc(N2CC(C)Cn3c2nc2c3c(=O)n(CCc3ccccc3)c(=O)n2C)cc1` (stereo not given): the Potency is inactive: > 76.9 µM.

In the case of `O=C(CCn1nc(-c2ccccc2)ccc1=O)N1CCN(c2ccccn2)CC1`, the Potency is inactive: > 76.9 µM.

With `O=C(CSc1ccc2nnc(-c3ccccc3)n2n1)NCc1ccco1`, the Potency is inactive: > 76.9 µM.

As for `Cc1ccc(NC(=O)N(Cc2cc3cc(C)cc(C)c3[nH]c2=O)CC2COCCO2)cc1` (stereo not given), the Potency was inactive: > 76.9 µM.

On to `CC(=O)c1c(C)[nH]c(C(=O)NCCC2=CCCCC2)c1C`, for which the Potency was inactive: > 76.9 µM.

Take `Cc1cc(NC(=O)CCC(=O)N(c2ccccc2)C2(C(=O)NC3CCCCC3)CCCC2)no1`: the Potency was inactive: > 76.9 µM.

In the case of `COc1ccccc1C1/C(=C(/O)c2ccccc2)C(=O)C(=O)N1CC(C)C` (stereo not given), the Potency was inactive: > 76.9 µM.

As to `O=C(NCc1cccs1)c1cccnc1C(=O)O`, the Potency is inactive: > 76.9 µM.

In the case of `COC(=O)NCc1ccc(S(=O)(=O)N2CCOCC2)cc1`, the Potency was inactive: > 76.9 µM.

Regarding `CCO/C=C/C(=O)N(C)CCC#N`, the Potency is inactive: > 76.9 µM.
